Measured values: PubChem BioAssay (NCI)
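These data come from cells grown in 96-well plates and exposed to compound for 48 hours at five concentrations. Abbreviation: GI50, concentration required for 50% inhibition of growth. TGI marks complete inhibition of growth.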

Tested on: NCI-H322M lung
Assay: NCI anticancer screen, dose series, 48 h

CCOC(=O)C1=C(Nc2ccc(Br)cc2)OCC1=O and Cc1ccc(NC(=O)C(=O)C2C(=O)NC(=O)NC2=O)cc1C cannot be ordered by TGI: over 100 µM for the first, over 100 µM for the second.

O=[N+]([O-])c1c(F)c(F)c2c(c1F)N(CCCCCl)c1ccccc1S2 and CC(Cl)CN1c2ccccc2Sc2ccc(Cl)cc21 (stereo not given) cannot be ordered by TGI: 19.7 µM for the first, over 10 µM for the second.

Compared with COCCn1cnc2c(Cl)nc(Nc3ccccc3)nc21, Nc1nc(SCc2ccccc2Cl)c2[nH]cnc2n1 is higher in TGI: 89.6 µM for the first, over 100 µM for the second.

First: COC(=O)N[C@H](C(=O)NC(OCc1ccccc1)C1COC(C)(C)O1)C(C)O[Si](C)(C)C(C)(C)C (stereo not given in full)
Second: COC(=O)[C@]12CC[C@@H](C)[C@H](C)[C@@H]1C1=CC[C@@H]3[C@@]4(C)C(C=O)=C[C@@](C)(COC(=O)c5ccco5)[C@@H]4[C@H](O)C[C@@]3(C)[C@]1(C)CC2
The TGI of the first is higher: over 100 µM for the first, 25.4 µM for the second.

C(=Nc1ccc2c(c1)Cc1ccccc1-2)c1ccccn1 and C[Si](C)(C)CN1C(=O)c2ccccc2C1(O)c1ccccc1 (stereo not given) cannot be ordered by TGI: over 100 µM for the first, over 100 µM for the second.

Compared with C[n+]1c2ccccc2c(NC(CCCN=C(N)N)C(=O)O)c2ccccc21 (stereo not given), Cc1ccc(CSC(N)=Nc2ccccc2)cc1C is lower in TGI: over 100 µM for the first, 83.7 µM for the second.

C1COCCSC2=C(SCCO1)SC(=C1SC3=C(SCCOCCOCCS3)S1)S2 and COc1cc2c(cc1O)NC(=O)[C@@H]1CCCN1C2=O cannot be ordered by TGI: over 100 µM for the first, over 100 µM for the second.

Compared with CNC(C)[C@H]1CCC2C3CC=C4C(=O)[C@@H](NC(=O)C=C(C)C)CC[C@]4(C)C3CC[C@@]21C (stereo not given in full), CCOC(=O)CCC1(CCC(=O)OCC)CCCCCCCCC(CCC(=O)OCC)(CCC(=O)OCC)C(=O)C1=O is higher in TGI: 5.4 µM for the first, over 100 µM for the second.

Going from Cc1ccnc2c1C(=O)C1=C(OC(C)(C)CC1O)C2=O (stereo not given) to Cc1ccc(C)c(N2C(=O)C(=O)C(c3nc4ccccc4o3)/C(=N\NC(=O)c3ccccc3O)C2=O)c1 (stereo not given), the TGI rises from 23.5 µM to over 100 µM.

COc1ccc2nc(-c3ccccc3)c(=O)[nH]c2c1 and c1ccc(NCCSc2nc3ccccc3s2)cc1 cannot be ordered by TGI: over 100 µM for the first, over 100 µM for the second.

O=C1/C(=C\c2cccc(Oc3ccccc3)c2)S(=O)(=O)C(c2ccccc2)N1c1cccc(Cl)c1 (stereo not given) and O=C1c2ccc3c4ccccc4n(-c4ccccc4)c3c2C(=O)N1c1ccc(Cl)cc1 cannot be ordered by TGI: over 100 µM for the first, over 100 µM for the second.

COc1ccc(C2COc3c(ccc(O)c3C)C2)cc1OC (stereo not given) and COc1ccc(/C=N/N=C(\N)NO)c(OC)c1C cannot be ordered by TGI: over 200 µM for the first, over 100 µM for the second.

Compared with Oc1ccc(N=Nc2nccs2)c(O)c1, CC(C)(C)c1cc(C(=O)/C=C/c2ccc(C(=O)O)cc2)cc(C(C)(C)C)c1 is 6.6-fold lower in TGI: 67.7 µM for the first, 10.3 µM for the second.

Going from CC(=O)OCCOCNC(=S)N/N=C/c1ccc([N+](=O)[O-])s1 to NCCCN(CCCN)CCc1cn(C(=O)c2ccccc2)cn1, the TGI falls from over 100 µM to 26.9 µM.

Compared with O=P1(Cc2ccccc2)N(Cc2ccccc2)[C@@H]2CCCC[C@H]2N1Cc1ccccc1, Cn1cc(S(=O)(=O)N2CCC3=Cc4c(cnn4-c4ccc(F)cc4)C[C@]3(C(=O)c3cc(C(F)(F)F)ccn3)C2)cn1 is higher in TGI: 24 µM for the first, over 100 µM for the second.

Compound O=C1c2c(Br)sc(Br)c2C(=O)C1(O)O has a TGI of over 100 µM.

First: CNC(C)[C@H]1CCC2C3CC=C4C(=O)[C@@H](NC(=O)C=C(C)C)CC[C@]4(C)C3CC[C@@]21C (stereo not given in full)
Second: COC(=O)[C@]12CC[C@@H](C)[C@H](C)[C@@H]1C1=CC[C@@H]3[C@@]4(C)C(C=O)=C[C@@](C)(COC(=O)c5ccco5)[C@@H]4[C@H](O)C[C@@]3(C)[C@]1(C)CC2
The GI50 of the first is 2.3-fold lower: 2.03 µM for the first, 4.74 µM for the second.

Going from Oc1ccc(N=Nc2nccs2)c(O)c1 to Cn1cc(S(=O)(=O)N2CCC3=Cc4c(cnn4-c4ccc(F)cc4)C[C@]3(C(=O)c3cc(C(F)(F)F)ccn3)C2)cn1, the GI50 rises from 18.2 µM to over 100 µM.
